# In all, about 2,900 compounds were measured (“NF-kB SEAP reporter activity, fold change vs agonist alone”: median about 0.99, highest 2% from about 2.6 on). Some of the results follow.
# Legend:
# [1] = test system: RAW-Dual; assay: NF-kB SEAP reporter activity, fold change vs agonist alone; cytotoxicity flag (confluency mask): not cytotoxic; higher = enhanced NF-kB activity
# Procedure, shortened: (§1)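 Library stock was pin-tooled at 50 nL into 384-well plates of RAW-Dual macrophages (50,000 cells/well, DMEM), followed 1 h later by a PRR agonist, and the cells were kept at 37 °C, 5% CO2. Supernatant collected after 20 hours was read for IRF by QuantiLuc luminescence and for NF-κB by QuantiBlue absorbance at 620 nm. Reporter activity is fold change over agonist-alone wells, and a well counted as cytotoxic when its IncuCyte confluency was below 70% of agonist controls in both mask sets.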
# [2] = test system: RAW-Dual; assay: NF-kB SEAP reporter activity, fold change vs agonist alone; higher = enhanced NF-kB activity; settings: library stock concentration (final ~1000-fold dilution): 10 mM
# Procedure, shortened: as §1
# [3] = test system: RAW-Dual; assay: NF-kB SEAP reporter activity, fold change vs agonist alone; cytotoxicity flag (confluency mask): cytotoxic (confluency <70% of control); higher = enhanced NF-kB activity
# Procedure, shortened: as §1
# [4] = agonist: ODN 1826 (TLR9) 0.5 ug/mL
# [5] = agonist: Pam2CSK4 (TLR2/6) 0.1 ug/mL
# [6] = agonist: Pam3CSK4 (TLR2/1) 0.1 ug/mL
# [7] = cytotoxicity flag (confluency mask): not cytotoxic, agonist: Imiquimod (TLR7) […]
# [8] = cytotoxicity flag (confluency mask): not cytotoxic, agonist: MPLA (TLR4) […]
smiles,measurement,setting,value
C=C1C(CO)C(O)CC1n1cnc2c(=O)nc(N)[nH]c21.O (stereo unspecified) (library stock concentration (final ~1000-fold dilution): 10 mM),NF-kB SEAP reporter activity,[1]; agonist: LPS (TLR4) 0.1 ug/mL,1.3
same,NF-kB SEAP reporter activity,[1]; [4],1.03
same,NF-kB SEAP reporter activity,[1]; [5],1.11
same,NF-kB SEAP reporter activity,[1]; [6],1.2
CNC(=O)c1cccc(-c2ccc3c(N4CCOCC4C)nc(N4CCOCC4C)nc3n2)c1 (stereo unspecified),NF-kB SEAP reporter activity,[2]; [7],1.13
same,NF-kB SEAP reporter activity,[2]; [8],1.22
CNC(=O)c1cccc(-c2ccc3c(N4CCOCC4C)nc(N4CCOCC4C)nc3n2)c1 (stereo unspecified) (library stock concentration (final ~1000-fold dilution): 10 mM),NF-kB SEAP reporter activity,[1]; agonist: LPS (TLR4) 0.1 ug/mL,1.11
same,NF-kB SEAP reporter activity,[1]; [4],0.489
same,NF-kB SEAP reporter activity,[1]; [5],0.376
same,NF-kB SEAP reporter activity,[1]; [6],0.57
Cl.OC1C=C2CCN3Cc4cc5c(cc4C(C1O)C23)OCO5 (stereo unspecified),NF-kB SEAP reporter activity,[2]; [7],2.19
same,NF-kB SEAP reporter activity,[2]; [8],1.63
Cl.OC1C=C2CCN3Cc4cc5c(cc4C(C1O)C23)OCO5 (stereo unspecified) (library stock concentration (final ~1000-fold dilution): 10 mM),NF-kB SEAP reporter activity,[1]; agonist: LPS (TLR4) 0.1 ug/mL,1.62
same,NF-kB SEAP reporter activity,[1]; [4],1.13
same,NF-kB SEAP reporter activity,[1]; [5],0.634
same,NF-kB SEAP reporter activity,[1]; [6],0.859
Cc1ccc(S(=O)(=O)OCC(=O)Nc2ccc(C(=O)O)c(O)c2)cc1,NF-kB SEAP reporter activity,[2]; [7],0.942
same,NF-kB SEAP reporter activity,[2]; [8],1.02
Cc1ccc(S(=O)(=O)OCC(=O)Nc2ccc(C(=O)O)c(O)c2)cc1 (library stock concentration (final ~1000-fold dilution): 10 mM),NF-kB SEAP reporter activity,[1]; agonist: LPS (TLR4) 0.1 ug/mL,1.22
same,NF-kB SEAP reporter activity,[1]; [4],1.01
same,NF-kB SEAP reporter activity,[1]; [5],0.939
same,NF-kB SEAP reporter activity,[1]; [6],1.08
O=C(CCc1ccc(O)cc1)c1c(O)cc(OC2OC(CO)C(O)C(O)C2O)cc1O (stereo unspecified),NF-kB SEAP reporter activity,[2]; [7],1.05
same,NF-kB SEAP reporter activity,[2]; [8],1.06
O=C(CCc1ccc(O)cc1)c1c(O)cc(OC2OC(CO)C(O)C(O)C2O)cc1O (stereo unspecified) (library stock concentration (final ~1000-fold dilution): 10 mM),NF-kB SEAP reporter activity,[1]; agonist: LPS (TLR4) 0.1 ug/mL,1.34
same,NF-kB SEAP reporter activity,[1]; [4],1.06
same,NF-kB SEAP reporter activity,[1]; [5],1.11
same,NF-kB SEAP reporter activity,[1]; [6],1.32
Cc1nnc(NC(=O)c2nc(S(=O)(=O)Cc3ccc(F)cc3)ncc2Cl)s1,NF-kB SEAP reporter activity,[2]; [7],1.23
same,NF-kB SEAP reporter activity,[2]; [8],0.951
Cc1nnc(NC(=O)c2nc(S(=O)(=O)Cc3ccc(F)cc3)ncc2Cl)s1 (library stock concentration (final ~1000-fold dilution): 10 mM),NF-kB SEAP reporter activity,[1]; agonist: LPS (TLR4) 0.1 ug/mL,0.583
same,NF-kB SEAP reporter activity,[1]; [4],0.952
same,NF-kB SEAP reporter activity,[1]; [5],0.681
same,NF-kB SEAP reporter activity,[1]; [6],0.568
Cc1cc(N2CCN(C3CNC(C(=O)N4CCSC4)C3)CC2)n(-c2ccccc2)n1 (stereo unspecified) (library stock concentration (final ~1000-fold dilution): 10 mM),NF-kB SEAP reporter activity,[1]; agonist: LPS (TLR4) 0.1 ug/mL,0.83
same,NF-kB SEAP reporter activity,[1]; [4],1.06
same,NF-kB SEAP reporter activity,[1]; [5],0.973
same,NF-kB SEAP reporter activity,[1]; [6],1.12
Cc1cc(N2CCN(C3CNC(C(=O)N4CCSC4)C3)CC2)n(-c2ccccc2)n1 (stereo unspecified),NF-kB SEAP reporter activity,[2]; [8],0.979
CC1(C)C=C(CN2C/C(=C\c3ccc(F)cc3)C(=O)/C(=C/c3ccc(F)cc3)C2)C(C)(C)N1O,NF-kB SEAP reporter activity,[2]; [7],1.22
same,NF-kB SEAP reporter activity,[2]; [8],1.3
CC1(C)C=C(CN2C/C(=C\c3ccc(F)cc3)C(=O)/C(=C/c3ccc(F)cc3)C2)C(C)(C)N1O (library stock concentration (final ~1000-fold dilution): 10 mM),NF-kB SEAP reporter activity,[1]; agonist: LPS (TLR4) 0.1 ug/mL,0.893
same,NF-kB SEAP reporter activity,[1]; [4],1.22
same,NF-kB SEAP reporter activity,[1]; [5],0.842
same,NF-kB SEAP reporter activity,[1]; [6],0.609
COc1ccc(-c2oc3c(CC=C(C)C)c(O)cc(O)c3c(=O)c2OC2OC(C)C(O)C(O)C2O)cc1 (stereo unspecified),NF-kB SEAP reporter activity,"[2]; cytotoxicity flag (confluency mask): cytotoxic (confluency <70% of control), agonist: Imiquimod (TLR7) […]",1.82
same,NF-kB SEAP reporter activity,"[2]; cytotoxicity flag (confluency mask): cytotoxic (confluency <70% of control), agonist: MPLA (TLR4) […]",1.45
COc1ccc(-c2oc3c(CC=C(C)C)c(O)cc(O)c3c(=O)c2OC2OC(C)C(O)C(O)C2O)cc1 (stereo unspecified) (library stock concentration (final ~1000-fold dilution): 10 mM),NF-kB SEAP reporter activity,[3]; agonist: LPS (TLR4) 0.1 ug/mL,2.22
same,NF-kB SEAP reporter activity,[3]; [4],0.553
same,NF-kB SEAP reporter activity,[3]; [5],0.251
same,NF-kB SEAP reporter activity,[3]; [6],0.457
